# Data reported in article PMC4336329 (PLoS ONE, 2015).
# The campaign covered roughly 310,000 compounds. About 2,200 (0.71%) showed an effect of 50% or more. The effect is printed as a negative number. The list shows a part of the results.
# Target: human ether-à-go-go-related gene (hERG) potassium channel (human, UniProt Q12809)
# Test: primary screen, population patch clamp on CHO cells stably expressing hERG
# Sequence of human ether-à-go-go-related gene (hERG) potassium channel (Q12809 whole entry, looked up): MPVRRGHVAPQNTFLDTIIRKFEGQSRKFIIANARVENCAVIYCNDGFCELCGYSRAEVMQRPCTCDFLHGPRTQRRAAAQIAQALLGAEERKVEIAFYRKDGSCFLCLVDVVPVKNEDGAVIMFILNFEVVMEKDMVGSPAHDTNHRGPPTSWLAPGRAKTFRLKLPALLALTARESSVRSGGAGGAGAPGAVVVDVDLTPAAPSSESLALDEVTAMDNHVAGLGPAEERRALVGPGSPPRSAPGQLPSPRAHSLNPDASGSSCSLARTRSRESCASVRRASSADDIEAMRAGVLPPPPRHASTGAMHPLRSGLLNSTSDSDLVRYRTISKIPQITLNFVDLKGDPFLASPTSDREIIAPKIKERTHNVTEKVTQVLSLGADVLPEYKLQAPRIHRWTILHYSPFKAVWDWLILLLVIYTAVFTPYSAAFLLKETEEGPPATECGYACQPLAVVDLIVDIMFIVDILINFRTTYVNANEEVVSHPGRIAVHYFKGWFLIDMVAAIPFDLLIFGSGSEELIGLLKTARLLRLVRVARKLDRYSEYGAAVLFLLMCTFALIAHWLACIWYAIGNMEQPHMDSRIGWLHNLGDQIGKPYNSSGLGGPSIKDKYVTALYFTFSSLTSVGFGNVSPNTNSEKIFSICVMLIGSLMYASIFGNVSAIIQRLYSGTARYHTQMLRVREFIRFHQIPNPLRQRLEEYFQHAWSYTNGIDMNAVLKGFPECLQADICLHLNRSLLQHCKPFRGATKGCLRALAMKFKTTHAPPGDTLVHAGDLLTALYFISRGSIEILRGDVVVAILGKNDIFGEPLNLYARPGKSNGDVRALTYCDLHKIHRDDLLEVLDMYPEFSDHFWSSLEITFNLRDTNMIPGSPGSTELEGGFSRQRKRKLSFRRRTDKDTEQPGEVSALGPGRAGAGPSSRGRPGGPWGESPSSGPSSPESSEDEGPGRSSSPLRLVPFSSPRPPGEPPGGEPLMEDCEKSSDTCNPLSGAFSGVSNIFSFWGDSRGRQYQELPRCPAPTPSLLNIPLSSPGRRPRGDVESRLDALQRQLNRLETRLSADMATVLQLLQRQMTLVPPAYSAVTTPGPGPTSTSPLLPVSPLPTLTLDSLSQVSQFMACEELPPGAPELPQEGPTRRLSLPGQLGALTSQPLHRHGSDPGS
row,Compound,"hERG current change (%, negative = inhibition) at 1uM"
1,CC(OC(=O)c1cccnc1)C(=O)Nc1ccc2c(c1)OCO2 (stereo not shown),12.2%
2,Cc1cc(C)cc(NC(=O)C(OC(=O)c2cccs2)c2ccccc2)c1 (stereo not shown),16.7%
3,COC(=O)C(CCCN1C(=O)c2ccccc2C1=O)(NC(C)=O)c1nnn(C)n1 (stereo not shown),8.91%
4,CCN(CC)C(=O)C1CCCN(Cc2cccc(F)c2)C1 (stereo not shown),13.3%
5,CCC(C)(C)n1nnnc1C(c1cc2cc3c(cc2[nH]c1=O)OCO3)N1CCN(C)CC1 (stereo not shown),2.02%
6,CC1CCN(CC(=O)NC(=O)NCc2ccccc2)CC1,13.4%
7,CC12CCC(C(=O)Nc3ccncc3)(CC1O)C2(C)C (stereo not shown),9.1%
8,CN(C)c1ccc(C(C#N)c2ccccc2)nn1 (stereo not shown),17.6%
9,COc1ccc(OC)c(CNC(=O)C2CCN(S(=O)(=O)N3CCC(C)CC3)CC2)c1,-7.91%
10,COc1cc2[nH]c3c(=O)n(N)c(=O)[nH]c3c2cc1OC,12.5%
11,O=C1OCCN/C1=C\C(=O)c1ccccc1,3.81%
12,Nc1nc(CSc2ncn[nH]2)nc(Nc2ccc(F)cc2)n1,7.31%
13,CCOC(=O)c1cc2c(ccn2C)n1CC(=O)N1CCC(C)CC1,10.1%
14,N#Cc1cc(-c2ccccc2)nn1-c1ccccc1,14.1%
15,CNc1c(NS(=O)(=O)c2cc(Cl)ccc2OC)c(=O)oc2ccccc12,7.13%
16,COc1ccc(Cc2nc(-c3cccs3)no2)cc1OC,14.9%
17,O=C(Nc1cc(Cl)cc(Cl)c1)N1CCN(C(=O)C2CCCO2)CC1 (stereo not shown),-0.208%
18,CS(=O)(=O)c1ccc(C(=O)OCC(=O)N(CCc2ccccc2)Cc2ccccc2)cc1,-1.59%
19,CSc1cccc(NC(=O)C2CCN(S(=O)(=O)c3cnc[nH]3)CC2)c1,10.1%
20,Cc1c(-n2c(SCC(=O)O)nnc2-c2ccccc2Cl)c(=O)n(-c2ccccc2)n1C,15.4%
21,COc1ccc(CN2CCN(Cc3cccc(OC)c3)C(CCO)C2)cc1 (stereo not shown),-11.7%
22,O=C(NCc1ccncc1)c1cccc(S(=O)(=O)N2CCc3ccccc32)c1,-3.39%

row,Compound,"hERG current change (%, negative = inhibition) at 1uM"
1,CC(=O)c1c(C)[nH]c(C(=O)Nc2nc(-c3ccc(-c4ccccc4)cc3)cs2)c1C,6.71%
2,CCCCNC(=O)COC(=O)c1cc2c(C)nn(-c3ccccc3)c2s1,9.21%
3,CCOc1ccc(NC(=O)CN2CCc3ccccc3C2)cc1,11.6%
4,CCCN(CC1CC1)C(=O)Nc1ccccc1C,11%
5,NC(=O)c1nsc(C(=O)N(CC(=O)NC2CCCCC2)Cc2ccc(F)cc2)c1N,16%
6,CCc1ccc(S(=O)(=O)Nc2nnc(N)s2)cc1,10.6%
7,Cc1n[nH]c(C)c1N=Nc1ccc(Br)cc1,19.8%
8,CC(C)(C)NC(=O)Cn1nnc(-c2ccccc2NC(=O)c2cnccn2)n1,-7.54%
9,C#CCOCCOCCOCCNc1nc(N2CCN(C(=O)C([C@@H](C)CC)n3cc(C(N)COC(=O)C(F)(F)F)nn3)CC2)nc(N2CCN(C(=O)[C@H](CCCCN)n3cc(C(N)[C@H](C)CC)nn3)CC2)n1.Cl (stereo partly shown),10.5%
10,CCN(c1ccccc1)S(=O)(=O)c1ccc(C(=O)Nc2ncccc2C)cc1,11.1%
11,CCCn1c(=O)c(C(=O)NCc2ccccc2)c(O)c2ccccc21,7.02%
12,COc1ccc(-c2nc3cc([N+](=O)[O-])ccc3o2)cc1OC,12.5%
13,COCCNC(=O)c1noc2c1CCc1cc(OC)ccc1-2,-5.73%
14,CCOc1cccc(C(=O)Nc2nc(-c3ccc(S(=O)(=O)N4CCOCC4)cc3)cs2)c1,2.54%
15,O=C(COc1cccc(Cl)c1)NCc1ccccc1,18%
16,COc1ccc(N2C(=O)CC(N3CCN(c4ccc(S(=O)(=O)N5CCCC5)cc4)CC3)C2=O)cc1 (stereo not shown),4.15%
17,CCOc1ccccc1NC(=O)c1ccc2c(c1)C(=O)N(C(C)(C)C)C2=O,12.4%
18,CC(C)Oc1ccc(CC(=O)NNC(=S)Nc2ccc(Br)cc2)cc1,3.6%
19,Cc1cc(C)n2cc(CSCc3ccco3)nc2n1,11%
20,CC12CC3CC(C)(C1)CC(C(=O)Nc1nn[nH]n1)(C3)C2,5.81%
21,O=C1CCCCC(=O)c2ccccc2N1,25.3%
22,CCN(CC(=O)N1CCOCC1)S(=O)(=O)c1ccc(C)cc1,8.47%

row,Compound,"hERG current change (%, negative = inhibition) at 1uM"
1,CC(=O)C1=C(O)C(=O)N(c2cccnc2)C1c1ccc([N+](=O)[O-])cc1 (stereo not shown),5.27%
2,CCOC(=O)N1CCC2(CC1)C(C#N)=C(N)OC1=C2C(=O)CC(C)C1 (stereo not shown),6.09%
3,CC(=O)NC12CC3CC(C1)CC(C(=O)NCC(=O)Nc1c(C)cc(C)cc1C)(C3)C2,12%
4,O=C(NCC1CCCCC1)c1cc(Br)ccc1Cl,11.8%
5,COCc1c(C#N)c(NCCc2ccc(F)cc2)nc(C)c1[N+](=O)[O-],6.46%
6,CCN(CC(=O)Nc1ccc(S(=O)(=O)N2CCCCC2)cc1)Cc1ccccc1,3.56%
7,COc1ccc(F)cc1C(=O)C1CCCN(Cc2ccc(O)cc2)C1 (stereo not shown),-25.1%
8,O=C(OCCc1cc2ccccc2c(=O)o1)c1ccco1,5.27%
9,S=C(NCc1ccco1)N1CCN(c2ccccn2)CC1,18.5%
10,Nc1nncn1C(=O)c1c(Cl)cccc1Cl,1.14%
11,Cc1cccc(OCC(O)CN2CCN(CCN3C(=O)c4cccc5cccc(c45)C3=O)CC2)c1C (stereo not shown),15.1%
12,Cn1c(SCC(N)=O)nnc1-c1ccccc1,1.72%
13,Nc1nnn(CC(=O)N/N=C/c2ccc(Cl)cc2Cl)n1,11.7%
14,CCCSc1nnc(CSc2ncccn2)n1C,13%
15,Cc1ccc(S(=O)(=O)n2nc(-c3ccco3)nc2SCc2ccccc2)cc1,7.34%
16,COc1cccc(C(=O)CC(=O)C(=O)Nc2ccc(C)cc2Cl)c1,9.95%
17,COc1cccc(/C=C2\SC(=O)N(CCC(=O)NNC(=O)c3ccccc3Cl)C2=O)c1,7.45%
18,Cc1cc2nc(SCC(=O)N(C)C)c3c(c2cc1C)CCCC3,0.811%
19,Cc1ccc(NS(=O)(=O)c2ccc(NC(=O)c3ccc(-c4ccccc4)cc3)cc2)c(C)c1,7.25%
20,O=C(NCCC1=CCCCC1)c1ccc(Cl)c(S(=O)(=O)N2CCCCC2)c1,4.72%
21,COc1ccc(C(=O)Oc2cc(OC)cc(OC)c2C(C)=O)cc1,12.1%
22,O=C(CSc1nnc(CNc2ccc(F)cc2)o1)N1CCN(C(=O)c2ccco2)CC1,-14.2%

row,Compound,"hERG current change (%, negative = inhibition) at 1uM"
1,CC/C(=N\NC(=O)CSCc1ccc(Cl)cc1)c1ccc2c(c1)OCCO2,12%
2,COc1ccc(CNCC(=O)Nc2ccccc2-n2cccc2)cc1.Cl,6.51%
3,COCCOC(=O)c1c(C)oc2ccc(OC(=O)c3c(OC)cccc3OC)cc12,6.81%
4,CCOC(=O)C1CCN(S(=O)(=O)c2ccc3c(c2)CC(=O)N3C)CC1,8.89%
5,O=C(Nc1ccc(Cl)cc1C(=O)O)c1ccc2c(c1)C(=O)N(Cc1ccco1)C2=O,18.7%
6,Cc1cc(S(=O)(=O)N(Cc2cccs2)Cc2ccccc2F)ccc1-n1cnnn1,5.44%
7,S=C(Nc1cccc(Cl)c1Cl)N1CCC2(CC1)OCCO2,11.3%
8,COc1ccc(S(=O)(=O)N2CCOCC2)cc1NC(=O)c1sccc1C,9.57%
9,COc1ccc(S(=O)(=O)N2CCCC(C(=O)NCc3ccccc3)C2)cc1 (stereo not shown),23.7%
10,COc1ccc(C2NC3=C(CCC3)C3(C#N)C4(N=C(N)C23C#N)OCCO4)cc1 (stereo not shown),0.697%
11,O=C(NCCC1CCCCN1S(=O)(=O)c1ccc(F)cc1)C(=O)Nc1ccccc1F (stereo not shown),14.6%
12,COC(=O)c1cc(O)cc(OC)c1Oc1cc(C)cc(O)c1C(=O)O,15.2%
13,Cc1c(CN2CCC(CO)(Cc3ccccc3)CC2)c2ccccc2n1C,6.98%
14,COc1ccc(Cl)cc1NC(=O)COC(=O)C1COc2ccccc2O1 (stereo not shown),4.93%
15,COc1cc(OC)cc(N(C(=O)CNC(=O)c2ccco2)C(C(=O)NCC2CCCO2)c2ccccc2)c1 (stereo not shown),7.67%
16,CCOc1ccccc1OCCCC(=O)Nc1cccc(S(=O)(=O)N2CCOCC2)c1,6.75%
17,Cc1ccc(NC(=O)Nc2cnc3ccccc3c2)cc1,10.3%
18,Nc1cccc(-c2nc3ccccc3s2)c1,2.59%
19,Cc1ccc2nc(SCC(=O)Nc3ccc(Br)cc3)nc(=O)n2c1,10%
20,O=C(CSc1nnc(N2CCOCC2)n1-c1cccc(F)c1)N1CCN(c2ccccn2)CC1,16.7%
21,COc1ccc(CNc2nc3nc(C)c(Cl)c(C)n3n2)cc1,16%
22,Nc1ncnc2c1cnn2-c1ccccc1,2.75%
